# Assay results from PubChem BioAssay (EPA / NIEHS).
# A number of entries come with more than one value. The list is limited to them. There may be further records. Values that stand side by side are repeats (runs, samples, wells, individuals or studies). Inconclusive results are not listed. Rule for the calls, unless noted: active = hit-call score of the fitted dose curve at least 0.9, where 1 is the maximum; inconclusive = response in the unintended direction; inactive = score below 0.9. More than one record can exist for a structure, and the calls need not agree.
# Legend:
# [1] = ATG_CMV_CIS: Attagene CIS-FACTORIAL HepG2 Assay for human CMV (Internal Marker) (AID 2282928; active = hit-call score of the fitted dose curve at least 0.9, where 1 is the maximum; inactive = score below 0.9;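 note: endpoint acts as a background internal control marker rather than a target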); settings: HepG2 CMV promoter reporter, transcription factor profiling; actives raise or lower the signal
# Procedure, shortened: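 After transient transfection of HepG2 with reporter transcription units driven by cis-regulatory promoters, cells receive test chemical for 24 h. Labeled reporter amplicons, digested with HpaI, are sized and quantified by capillary electrophoresis against DMSO.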
# [2] = target: Estrogen receptor (Homo sapiens) (UniProt P03372); assay: ATG_ERa_TRANS: Attagene TRANS-FACTORIAL HepG2 Assay for human Estrogen Receptor alpha (ERa) (AID 2282970); settings: HepG2 Attagene TRANS ERa GAL4 reporter, mRNA
# Procedure, shortened: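 Cells: HepG2, transiently transfected. Construct: GAL4-UAS reporter units regulated by exogenous NR-Gal4 chimeras. Time: 24 h. Detection: reporter mRNA by RT-PCR, capillary electrophoresis, fluorescence. Baseline: DMSO, upward fitting.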
# [3] = target: Nuclear receptor subfamily 1 group I member 2 (Homo sapiens) (UniProt O75469); assay: ATG_PXR_TRANS: Attagene TRANS-FACTORIAL HepG2 Assay for human Pregnane X Receptor (PXR) (AID 2283008)
# Chain of UniProt O75469 (O75469 whole entry, looked up, the tested form may be a part): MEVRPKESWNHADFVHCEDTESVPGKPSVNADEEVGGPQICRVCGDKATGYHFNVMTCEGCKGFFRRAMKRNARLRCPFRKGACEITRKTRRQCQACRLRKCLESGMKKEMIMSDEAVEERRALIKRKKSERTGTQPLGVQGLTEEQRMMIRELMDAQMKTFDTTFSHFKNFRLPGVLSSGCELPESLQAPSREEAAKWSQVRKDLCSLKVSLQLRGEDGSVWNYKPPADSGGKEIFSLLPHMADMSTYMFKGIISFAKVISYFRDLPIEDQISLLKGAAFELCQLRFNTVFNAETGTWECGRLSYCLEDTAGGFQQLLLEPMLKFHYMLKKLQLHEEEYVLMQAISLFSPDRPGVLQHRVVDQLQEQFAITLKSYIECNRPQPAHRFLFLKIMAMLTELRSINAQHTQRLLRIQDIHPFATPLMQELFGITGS
# Procedure, shortened: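 Measures mRNA induction of a GAL4-UAS-driven reporter in human HepG2 cells transiently expressing PXR fused to Gal4, following 24 h treatment. DMSO served as negative control and baseline.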
# [4] = target: bovine Estrogen Receptor (ER), ESR1 (gene 407238) (UniProt P49884); assay: NVS_NR_bER: NovaScreen (NVS) Nuclear Receptor Binding Assay for bovine Estrogen Receptor (ER) (AID 2283345);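 note: actives lower the bound radioligand count which means they displace the ER ligand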
# Chain of UniProt P49884 (P49884 whole entry, looked up): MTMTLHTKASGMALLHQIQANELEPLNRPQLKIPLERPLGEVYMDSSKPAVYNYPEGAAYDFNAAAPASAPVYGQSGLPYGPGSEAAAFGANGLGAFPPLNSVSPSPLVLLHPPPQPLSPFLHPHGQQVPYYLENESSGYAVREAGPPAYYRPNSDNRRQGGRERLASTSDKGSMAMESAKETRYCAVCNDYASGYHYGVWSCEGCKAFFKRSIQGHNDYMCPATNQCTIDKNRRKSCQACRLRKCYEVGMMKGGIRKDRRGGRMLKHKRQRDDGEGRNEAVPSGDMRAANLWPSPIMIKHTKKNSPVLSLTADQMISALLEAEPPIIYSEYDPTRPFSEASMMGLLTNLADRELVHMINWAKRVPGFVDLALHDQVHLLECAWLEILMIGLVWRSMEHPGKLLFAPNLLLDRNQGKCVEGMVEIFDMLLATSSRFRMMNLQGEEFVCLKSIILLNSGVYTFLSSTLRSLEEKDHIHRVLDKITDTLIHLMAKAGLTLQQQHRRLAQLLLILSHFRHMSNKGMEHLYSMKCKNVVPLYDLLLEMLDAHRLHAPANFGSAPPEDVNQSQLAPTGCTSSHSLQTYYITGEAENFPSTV
# Procedure, shortened: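 Displacement of a radioligand from estrogen receptor in bovine uterine membrane preparations; scintillation signal taken at 18 hours, DMSO as baseline. Single-concentration duplicates (25 uM) preceded concentration-response follow-up of actives.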
# [5] = target: Estrogen receptor (Homo sapiens) (UniProt P03372); assay: OT_ER_ERaERa_1440: Odyssey Thera (OT) 24-hour HEK293T Protein-Complementation Assay for Estrogen Receptor-alpha/-alpha Homodimer (AID 2283349);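 note: hits raise fluorescence above DMSO for agonists and antagonists alike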
# Procedure, shortened: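 HEK293T cells stably expressing the human ER alpha ligand-binding domain (aa 310-547) as a homodimer PCA were dosed for 24 hours. Fluorescence intensity was read by laser scanning cytometry, and gain of signal was fitted relative to DMSO vehicle.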
# [6] = target: Estrogen receptor (Homo sapiens) (UniProt P03372); assay: OT_ER_ERaERa_0480: Odyssey Thera (OT) 8-hour HEK293T Protein-Complementation Assay for Estrogen Receptor-alpha/-alpha Homodimer (AID 2283351);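 note: rise in fluorescence from reassembled reporter fragments on ERα LBD homodimer in nucleus or whole cell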
# Procedure, shortened: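 The readout is complementation of fragments fused to the human ER alpha ligand-binding domain (aa 310-547), stably expressed in HEK293T cells. After 8 h of exposure, the increase in nuclear/cytoplasmic fluorescence was measured by laser scanning cytometry and fitted relative to DMSO.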
# [7] = target: Estrogen receptor (Homo sapiens) + Estrogen receptor beta (Homo sapiens) (UniProt P03372+Q92731); assay: OT_ER_ERaERb_0480: Odyssey Thera (OT) 8-hour HEK293T Protein-Complementation Assay for Estrogen Receptor-alpha/-beta Heterodimer (AID 2283352)
# Procedure, shortened: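 Fluorescence increase from reconstituted reporter fragments, quantified by laser scanning cytometer, reflects ER-alpha/ER-beta heterodimer formation in human HEK293T cells. Exposure 8 h; positive-direction fitting against DMSO vehicle.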
# [8] = target: Estrogen receptor beta (Homo sapiens) (UniProt Q92731); assay: OT_ER_ERbERb_0480: Odyssey Thera (OT) 8-hour HEK293T Protein-Complementation Assay for Estrogen Receptor-beta/-beta Homodimer (AID 2283357);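 note: active means signal gain over DMSO baseline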
# Chain of UniProt Q92731 (Q92731 whole entry, looked up, the tested form may be a part): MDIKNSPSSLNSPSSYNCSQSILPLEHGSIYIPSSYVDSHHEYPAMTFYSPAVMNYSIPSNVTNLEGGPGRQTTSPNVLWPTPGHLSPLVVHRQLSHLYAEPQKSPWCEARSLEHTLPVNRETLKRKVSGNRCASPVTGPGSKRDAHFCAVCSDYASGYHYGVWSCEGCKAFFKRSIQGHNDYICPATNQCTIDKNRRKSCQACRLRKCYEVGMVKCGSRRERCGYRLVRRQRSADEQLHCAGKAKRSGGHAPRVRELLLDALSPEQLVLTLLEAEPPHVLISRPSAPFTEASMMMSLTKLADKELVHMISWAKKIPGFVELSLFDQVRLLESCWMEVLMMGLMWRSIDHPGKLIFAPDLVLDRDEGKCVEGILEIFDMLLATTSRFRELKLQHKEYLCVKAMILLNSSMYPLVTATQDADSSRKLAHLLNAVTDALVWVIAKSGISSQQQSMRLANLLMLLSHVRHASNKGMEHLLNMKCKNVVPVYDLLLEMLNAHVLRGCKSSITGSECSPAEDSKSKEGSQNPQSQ
# Procedure, shortened: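 Fluorescence intensity, nuclear for agonists and nuclear plus cytoplasmic for antagonists, was quantified by laser scanning cytometry versus vehicle after 8 h treatment. The cells were HEK293T stably carrying ER beta LBD fragment-complementation partners.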
# [9] = target: Glucocorticoid receptor (Homo sapiens) (UniProt P04150); assay: NVS_NR_hGR: NovaScreen (NVS) Nuclear Receptor Binding Assay for human Glucocorticoid Receptor (GR) (AID 2283363);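 note: activity is loss of specific radioligand binding signal relative to DMSO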
# Chain of UniProt P04150 (P04150 whole entry, looked up): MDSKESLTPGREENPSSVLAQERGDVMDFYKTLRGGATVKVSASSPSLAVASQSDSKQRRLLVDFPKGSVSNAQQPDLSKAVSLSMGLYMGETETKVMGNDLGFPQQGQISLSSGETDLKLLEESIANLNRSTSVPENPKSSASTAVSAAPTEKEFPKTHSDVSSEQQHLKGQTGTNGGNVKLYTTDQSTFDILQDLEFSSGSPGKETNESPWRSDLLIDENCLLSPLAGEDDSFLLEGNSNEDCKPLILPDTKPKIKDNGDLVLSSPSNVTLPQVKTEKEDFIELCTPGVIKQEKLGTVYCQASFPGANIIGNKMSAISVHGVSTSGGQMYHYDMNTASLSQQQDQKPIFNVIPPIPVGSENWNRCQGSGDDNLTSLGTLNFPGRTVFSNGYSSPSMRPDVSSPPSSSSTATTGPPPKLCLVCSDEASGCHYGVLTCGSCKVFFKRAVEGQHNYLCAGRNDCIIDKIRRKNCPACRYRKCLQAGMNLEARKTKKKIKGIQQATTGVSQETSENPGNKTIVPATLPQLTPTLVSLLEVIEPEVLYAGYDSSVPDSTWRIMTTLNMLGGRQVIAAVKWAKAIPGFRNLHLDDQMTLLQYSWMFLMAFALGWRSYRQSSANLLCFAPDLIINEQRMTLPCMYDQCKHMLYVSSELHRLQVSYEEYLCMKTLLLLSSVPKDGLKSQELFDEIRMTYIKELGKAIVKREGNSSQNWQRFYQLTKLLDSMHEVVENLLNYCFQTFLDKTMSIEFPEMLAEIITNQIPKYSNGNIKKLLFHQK
# Procedure, shortened: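 Cell-free radioligand displacement assay on extracted human GR, read 16 h after dosing by filter-based scintillation counting. Screened in duplicate at 25 uM, then concentration series for actives; loss of signal versus DMSO baseline.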
# [10] = target: rat Androgen Receptor (AR), Ar (gene 24208) (UniProt P15207); assay: NVS_NR_rAR: NovaScreen (NVS) Nuclear Receptor Binding Assay for rat Androgen Receptor (AR) (AID 2283366)
# Chain of UniProt P15207 (P15207 whole entry, looked up): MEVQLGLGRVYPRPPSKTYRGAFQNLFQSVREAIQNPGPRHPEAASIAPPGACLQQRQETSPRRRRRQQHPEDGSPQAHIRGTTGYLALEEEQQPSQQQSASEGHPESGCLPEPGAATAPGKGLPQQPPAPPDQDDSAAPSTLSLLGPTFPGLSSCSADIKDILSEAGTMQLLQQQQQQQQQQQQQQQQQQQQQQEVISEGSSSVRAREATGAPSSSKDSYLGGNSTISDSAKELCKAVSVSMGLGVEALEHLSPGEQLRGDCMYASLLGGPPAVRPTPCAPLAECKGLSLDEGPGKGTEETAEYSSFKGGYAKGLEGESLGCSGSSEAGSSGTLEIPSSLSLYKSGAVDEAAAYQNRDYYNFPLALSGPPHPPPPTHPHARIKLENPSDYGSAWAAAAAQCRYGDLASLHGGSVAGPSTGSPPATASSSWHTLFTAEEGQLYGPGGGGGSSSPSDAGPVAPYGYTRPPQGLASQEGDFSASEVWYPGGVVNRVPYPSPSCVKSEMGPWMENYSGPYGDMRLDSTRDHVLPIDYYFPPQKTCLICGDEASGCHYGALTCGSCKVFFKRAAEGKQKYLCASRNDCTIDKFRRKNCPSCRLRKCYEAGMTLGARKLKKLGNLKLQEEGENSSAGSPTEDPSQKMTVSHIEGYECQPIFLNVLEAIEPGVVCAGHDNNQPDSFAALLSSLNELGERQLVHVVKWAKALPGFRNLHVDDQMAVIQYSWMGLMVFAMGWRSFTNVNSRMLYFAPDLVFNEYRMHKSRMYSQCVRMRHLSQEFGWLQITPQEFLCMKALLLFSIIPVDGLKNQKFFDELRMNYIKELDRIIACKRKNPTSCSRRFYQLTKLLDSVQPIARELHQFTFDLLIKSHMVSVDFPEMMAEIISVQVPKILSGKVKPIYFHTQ
# Procedure, shortened: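 Cell-free radioligand binding on extracts of prostate from testosterone-pretreated rats, read by filter-based scintillation counting 18 h after dosing. Loss of bound signal fitted positively versus DMSO; primary screen in duplicate at 25 uM, actives followed up in concentration series.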
# [11] = target: Estrogen receptor beta (Homo sapiens) (UniProt Q92731); assay: OT_ER_ERbERb_1440: Odyssey Thera (OT) 24-hour HEK293T Protein-Complementation Assay for Estrogen Receptor-beta/-beta Homodimer (AID 2283380);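 note: scored as signal increase over DMSO baseline for both agonists and antagonists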
# Procedure, shortened: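 HEK293T cells stably expressing ER beta LBD (aa 310-547) homodimer fragment-complementation reporter, dosed 24 h. Cells formaldehyde-fixed, Draq5-stained; gain in nuclear (agonist) or nuclear plus cytoplasmic (antagonist) fluorescence versus DMSO read by laser scanning cytometry.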
# [12] = target: Estrogen receptor (Homo sapiens) (UniProt P03372); assay: OT_ERa_GFPERaERE_0480: Odyssey Thera (OT) 8-hour HeLa Transcription Induction Assay for Estrogen Receptor (AID 2283381; active = hit-call score of the fitted dose curve at least 0.9, where 1 is the maximum; inactive = score below 0.9)
# Procedure, shortened: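 HeLa cells expressing GFP reporter under estrogen response element, imaged 8 h after dosing. GFP induction quantified by high-content fluorescence microscopy image analysis; gain of signal fitted versus DMSO.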
# [13] = target: Estrogen receptor (Homo sapiens) (UniProt P03372); assay: OT_ERa_GFPERaERE_0120: Odyssey Thera (OT) 2-hour HeLa Transcription Induction Assay for Estrogen Receptor (AID 2283382)
# Procedure, shortened: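 HeLa cells were dosed for 2 h, then GFP reporter induction was quantified by fluorescence microscopy with high-content image analysis. Gain of signal fitted against DMSO baseline.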
# [14] = target: Estrogen receptor (Homo sapiens) (UniProt P03372); assay: NVS_NR_hER: NovaScreen (NVS) Nuclear Receptor Binding Assay for human Estrogen Receptor (ER) (AID 2283348)
# Procedure, shortened: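 Radioligand competitive displacement binding to estrogen receptor from MCF7 extract, cell-free; 18 h after dosing, scintillation read-out. Primary screen in duplicate at 25 uM; actives followed up in concentration series; loss of signal vs DMSO.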
# [15] = ATG_ERE_CIS: Attagene CIS-FACTORIAL HepG2 Assay for Estrogen Response Element (ERE) (AID 2282940; active = hit-call score of the fitted dose curve at least 0.9, where 1 is the maximum; inactive = score below 0.9); settings: HepG2 ERE cis-reporter, Attagene RNA transcript; actives raise or lower the signal
# Procedure, shortened: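 Human liver cells (HepG2) bearing transiently transfected, promoter-regulated reporter units were exposed 24 h. Reporter mRNA induction was detected by capillary electrophoresis of labelled RT-PCR products and fitted bidirectionally to DMSO.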
# [16] = ATG_ISRE_CIS: Attagene CIS-FACTORIAL HepG2 Assay for human Interferon Regulatory Factor 1 (IRF1) binding to an Interferon-Stimulated Response Element (ISRE) (AID 2282948; active = hit-call score of the fitted dose curve at least 0.9, where 1 is the maximum; inactive = score below 0.9); settings: HepG2 ISRE cis-reporter (Attagene), mRNA transcription readout; actives raise or lower the signal
# Procedure, shortened: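 Cell-based cis-reporter assay; HepG2; 24 h exposure; reporter mRNA by RT-PCR plus capillary electrophoresis fluorescence; activity in either direction scored relative to DMSO.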
# [17] = ATG_PPRE_CIS: Attagene CIS-FACTORIAL HepG2 Assay for human Peroxisome Proliferator-activated Response Element (PPRE) (AID 2282958; active = hit-call score of the fitted dose curve at least 0.9, where 1 is the maximum; inactive = score below 0.9); settings: HepG2 PPRE cis-element reporter, Attagene transcription factor profiling; actives raise or lower the signal
# Procedure, shortened: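 PPRE activity in HepG2: transient cis-reporter transfection, 24 h compound incubation, reporter mRNA by RT-PCR and CE fluorescence; gain/loss fitted against DMSO.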
# [18] = ATG_Oct_MLP_CIS: Attagene CIS-FACTORIAL HepG2 Assay for human Octamer-Binding Transcription Factor (Oct) (AID 2282993; active = hit-call score of the fitted dose curve at least 0.9, where 1 is the maximum; inactive = score below 0.9); settings: HepG2 Attagene cis-factorial Oct reporter, mRNA; actives raise or lower the signal
# Procedure, shortened: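 Using HepG2 cells bearing transfected cis-reporter constructs, mRNA induction was read after 24 h by fluorescent RT-PCR and capillary electrophoresis, with DMSO defining baseline for gain- or loss-of-signal fits.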
# [19] = target: Cellular tumor antigen p53 (Homo sapiens) (UniProt P04637); assay: ATG_p53_CIS: Attagene CIS-FACTORIAL HepG2 Assay for human p53 Transcription Factor (AID 2282994; active = hit-call score of the fitted dose curve at least 0.9, where 1 is the maximum; inactive = score below 0.9); settings: HepG2 p53 cis-element reporter, Attagene mRNA; actives raise or lower the signal
# Chain of UniProt P04637 (P04637 whole entry, looked up): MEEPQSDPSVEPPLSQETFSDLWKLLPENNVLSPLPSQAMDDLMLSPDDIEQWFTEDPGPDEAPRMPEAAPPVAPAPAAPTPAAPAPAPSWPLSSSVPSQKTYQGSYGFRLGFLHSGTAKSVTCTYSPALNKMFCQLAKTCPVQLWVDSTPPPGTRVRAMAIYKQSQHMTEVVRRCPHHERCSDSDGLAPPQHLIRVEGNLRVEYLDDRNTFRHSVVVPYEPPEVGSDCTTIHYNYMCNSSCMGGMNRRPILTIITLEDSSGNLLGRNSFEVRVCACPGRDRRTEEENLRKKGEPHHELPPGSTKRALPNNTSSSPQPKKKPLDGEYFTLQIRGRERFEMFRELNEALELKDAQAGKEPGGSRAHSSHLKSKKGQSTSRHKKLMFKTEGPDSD
# Procedure, shortened: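 Multiplexed reporter mRNA assay in human HepG2 liver cells; cis-regulated units report endogenous factor activity. Values come from bidirectional curve fitting against DMSO negative control after 24 h treatment.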
# [20] = target: Aryl hydrocarbon receptor (Homo sapiens) (UniProt P35869); assay: ATG_Ahr_CIS: Attagene CIS-FACTORIAL HepG2 Assay for human Aryl Hydrocarbon Receptor (Ahr) (AID 2282930; active = hit-call score of the fitted dose curve at least 0.9, where 1 is the maximum; inactive = score below 0.9); settings: HepG2 AhR cis-factorial reporter transcription; actives raise or lower the signal
# Chain of UniProt P35869 (P35869 whole entry, looked up): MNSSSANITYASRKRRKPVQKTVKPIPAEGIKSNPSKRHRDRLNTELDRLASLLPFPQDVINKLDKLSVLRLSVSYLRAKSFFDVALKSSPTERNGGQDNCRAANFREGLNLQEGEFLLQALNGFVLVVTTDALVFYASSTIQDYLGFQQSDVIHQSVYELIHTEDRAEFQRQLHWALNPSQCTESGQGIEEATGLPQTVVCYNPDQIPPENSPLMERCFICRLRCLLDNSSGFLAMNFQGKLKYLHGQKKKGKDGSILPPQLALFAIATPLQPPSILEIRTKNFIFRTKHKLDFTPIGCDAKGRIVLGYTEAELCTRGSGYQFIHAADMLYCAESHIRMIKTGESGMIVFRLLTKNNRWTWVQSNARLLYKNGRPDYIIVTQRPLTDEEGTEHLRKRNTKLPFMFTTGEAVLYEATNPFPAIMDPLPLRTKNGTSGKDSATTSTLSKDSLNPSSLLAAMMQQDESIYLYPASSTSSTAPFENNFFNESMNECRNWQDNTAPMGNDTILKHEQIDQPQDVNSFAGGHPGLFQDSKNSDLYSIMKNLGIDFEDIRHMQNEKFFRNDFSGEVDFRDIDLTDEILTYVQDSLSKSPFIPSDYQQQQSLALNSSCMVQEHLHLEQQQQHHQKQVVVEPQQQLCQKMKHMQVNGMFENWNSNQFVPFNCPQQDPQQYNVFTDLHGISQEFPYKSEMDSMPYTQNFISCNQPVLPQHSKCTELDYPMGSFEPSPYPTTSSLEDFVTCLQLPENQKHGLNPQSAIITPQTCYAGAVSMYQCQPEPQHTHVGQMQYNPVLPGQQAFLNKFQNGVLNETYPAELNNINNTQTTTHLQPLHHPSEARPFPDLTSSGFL
# Procedure, shortened: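 HepG2 cells transiently transfected with cis-element-driven multiplexed reporter units; endogenous AhR activity read as reporter mRNA 24 h after dosing, via RT-PCR, 6-FAM labelling, HpaI digestion and capillary electrophoresis. Bidirectional fit relative to DMSO.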
# [21] = ATG_NRF2_ARE_CIS: Attagene CIS-FACTORIAL HepG2 Assay for human Nuclear Factor Erythroid 2 Related Factor 2 (NFR2) response to Antioxidant Response Elements (ARE) (AID 2282992; active = hit-call score of the fitted dose curve at least 0.9, where 1 is the maximum; inactive = score below 0.9;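 note: reporter mRNA level measured by RT-PCR and capillary electrophoresis fluorescence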); settings: HepG2 Attagene ARE/NRF2 reporter, transcription factor activity; actives raise or lower the signal
# Procedure, shortened: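 Multiplexed reporter mRNA profiling in HepG2 after a 24 h chemical exposure. Curves fitted in both directions relative to DMSO negative control.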
smiles,measurement,setting,value
OC1CCC(C2CCCCC2)CC1 (stereo not drawn),AC50,[1],"active: 124, 100, 35.2, 56.9 µM [separate samples]"
same,AC50,[2],"active: 17.1, 21.8, 8.24, 27.5 µM [separate samples]"
CC[C@H](c1ccc(O)cc1)[C@@H](CC)c1ccc(O)cc1,AC50,[2],"active: 3.82, 2.28, 1.09, 1.56 nM [separate samples]"
same,AC50,[3],"active: 3.03, 2.17, 8.26, 1.73 µM [separate samples]"
same,AC50,[4],"active: 0.274, 3.34, 3.93, 2.29, 94.7 nM [separate samples]"
same,AC50,[5],"active: 99.8, 68.4, 86.9, 121, 77.1, 6.21 nM [separate samples]"
same,AC50,[6],"active: 51.2, 72.4, 38.3, 24.1, 30, 51.3 nM [separate samples]"
same,AC50,[7],"active: 48.7, 45.2, 125, 29.6, 219, 29.9 nM [separate samples]"
same,AC50,[8],"active: 17.4, 20.4, 14.4, 30, 43.7, 76.9 nM [separate samples]"
same,AC50,[9],"active: 451, 135, 294, 304 nM [separate samples]"
same,AC50,[10],"active: 1.15 µM, 758 nM, 937 nM, 7.13 µM [separate samples]"
same,AC50,[11],"active: 17.4, 18.5, 16.5, 30, 27.1, 190 nM [separate samples]"
same,AC50,[12],"active: 3.81, 3.95, 2.4, 58.1, 20.1 nM [separate samples]"
same,AC50,[13],"active: 3.06, 2.37, 4.77, 29.2, 189 nM [separate samples]"
CCC(=C(c1ccc(O)cc1)c1ccc(OCCN(C)C)cc1)c1ccccc1,AC50,[9],"active: 599, 181, 216, 411 nM [separate samples]"
O=C(O)c1ccccc1C(c1ccc(O)cc1)c1ccc(O)cc1,AC50,[2],"active: 16.4, 32.8, 42.6, 53.6 µM [separate samples]"
same,AC50,[4],"active: 7.6, 17.1, 38.4, 25 µM [separate samples]"
same,AC50,[14],"active: 3.58, 11.9, 13.1, 14.3 µM [separate samples]"
CCC(C)(C)C1CCC(O)CC1 (stereo not drawn),AC50,[15],"active: 14.8 µM, 297 nM, 2.76 µM, 42.7 µM [separate samples]"
same,AC50,[2],"active: 26.9, 2.01, 8.92, 27.9 µM [separate samples]"
O=c1c(-c2ccc(O)cc2)coc2cc(O)ccc12,AC50,[1],"active: 38.5, 27.7, 38.8, 100 µM [separate samples]"
same,AC50,[4],"active: 863 nM, 1.09 µM, 350 nM, 310 nM [separate samples]"
CC#C[C@]1(O)CC[C@H]2[C@@H]3CCC4=CC(=O)CCC4=C3[C@@H](c3ccc(N(C)C)cc3)C[C@@]21C,AC50,[16],"active: 40.1, 27.5, 12.4, 10.4 µM [separate samples]"
same,AC50,[17],"active: 312, 116, 86, 122 nM [separate samples]"
same,AC50,[18],"active: 47.1, 40.1, 9.34, 16.2 µM [separate samples]"
same,AC50,[19],"active: 11.9, 27.3, 8.71, 12.6 µM [separate samples]"
c1ccc2cc3c(ccc4ccccc43)cc2c1,AC50,[20],"active: 681 nM, 1.41 µM, 396 nM, 1.9 µM [separate samples]"
same,AC50,[21],"active: 711 nM, 1.91 µM, 926 nM, 2.81 µM [separate samples]"
